Results published in the supplement of paper PMC4466236.
The full ranking holds about 33,000 sequences; the median of “E-score (dimensionless, -0.5 to 0.5)” is about -0.058, and the highest 2% start at about 0.35. Some of the results follow.

Tested on: MvaT
Assay: PBM 8-mer E-score (mean of HK and ME arrays) (E-score (dimensionless, -0.5 to 0.5)); higher = stronger relative binding preference; most listed sequences are background and not binding sites
In short: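 Full-length P. aeruginosa MvaT, with glutathione S-transferase fused to its N-terminus (cloned into pTH6838 by isothermal assembly), was tested by protein binding microarray using a previously described protocol. Two universal double-stranded 60-mer arrays (ME and HK) were used, each with a constant 25-mer primer region and a variable 35-mer region covering all 8-mers. The rank-based 8-mer E-score (-0.5 to 0.5) is the mean of the two arrays, parsed with a custom Python script.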

Sequence | PBM 8-mer E-score
ACAAGATA | 0.283
CGCCAACG | -0.157
GCAGCGAC | -0.227
GGTTGCCA | -0.106
AGAACGCG | -0.124
CCAGGAAA | 0.0846
CGCGCGAA | 0.0286
CCTTCCTA | -0.268
ACCATCTG | 0.00967
AGTTAAAG | 0.209
CCACTGTC | -0.0539
CCGCCTTC | -0.246
GCGTTTAA | 0.17
AAGTGCGA | 0.0158
CCCGAAGG | -0.384
CGCTTCTA | -0.166
TGCTAGCA | -0.138
GCACACTA | 0.0972
ATGATGAC | 0.0741
AATCAAAG | 0.0531
ACCGTGGC | -0.137
AGTCTATA | 0.203
AATTAAAG | 0.355
AACACATG | 0.076
CTCAGCAA | -0.0212

Sequence | PBM 8-mer E-score
CAGGGCTA | -0.129
AACGAAGT | 0.0151
GACGGCGA | -0.0875
ACATTCCG | 0.213
AAGCGAAA | 0.106
AGATACCT | -0.0522
CTAGAAAG | 0.0386
GCGGTGTA | 0.0059
AAAGACGG | -0.0214
AACGTGTA | -0.173
GGGCAATA | 0.0333
ATATCAGC | 0.135
CGACTTTA | 0.163
TGAATGAA | 0.124
CAGTGCGG | -0.084
CTTTCTAC | 0.0152
CGGGCAGA | -0.201
CACTCAAA | 0.115
GAACAACA | 0.108
AGAAGACG | -0.0834
ATTACATA | 0.226
AGATTACT | 0.199
CTAAACTC | 0.123
TCATTACA | 0.178
CCGCTTGC | -0.27

Sequence | PBM 8-mer E-score
CGCCTTCA | -0.288
AACTGGAA | 0.113
AGTGTGTG | 0.137
GAGGAACC | -0.187
CATCAATC | -0.217
CTTGTGAC | 0.0235
CCATACCA | -0.145
ATGGACCG | -0.19
CATGGTTC | -0.116
ATTGAGGC | -0.0701
AATATGGA | 0.172
ATACAGCC | -0.0313
CACCCCGC | -0.251
ACGCACCT | -0.13
GGTCTTAC | -0.186
ACTTGGCC | -0.0697
AGCTCAGA | -0.163
CAGGTTCC | -0.237
ACTACCCA | -0.0208
CCTGCGGC | -0.139
AAACCACC | -0.0352
AGAAGATC | 0.0577
CCCCGGGA | -0.277
CCAGTGCA | -0.0854
CCGAGCTC | -0.257

Sequence | PBM 8-mer E-score
AGCAACAT | 0.0701
GGACTAAC | 0.024
CAGTCGAG | -0.263
ACATAAAT | 0.301
AGGTCATA | -0.0479
GCCCCACC | -0.292
AGTGGCCC | -0.293
CAATCCGA | 0.0113
AGCCTAAC | -0.0194
AAAGAATG | 0.165
GACCTGGA | -0.222
AACCTCCT | -0.257
CCGTGCTC | -0.173
CCTCTGAA | -0.216
GGTATGAC | -0.144
ATATGTTC | 0.231
CCTCGTCC | -0.302
TTACAAAA | 0.165
ATAATCAC | 0.247
AAGCCGAT | -0.0766
GGCCCAGA | -0.188
GCGTAGAC | -0.299
CTGTTACC | -0.0445
TATTCCAA | 0.284
TCGACCAA | 0.00565

Sequence | PBM 8-mer E-score
GTGGCGTA | 0.0544
CATTCTTA | 0.143
AGGAACTG | -0.184
ACCGCCAA | -0.0886
ACCGGCGC | -0.223
ATGTTGTG | 0.205
GACGAGCA | -0.105
ACGACAGA | -0.0131
GTGGAATA | 0.178
ACTCCGCG | -0.222
CATGCTGG | -0.146
CTCTGATC | -0.13
ATCCAAGA | -0.0611
CGCCAAAA | 0.0577
ACTTCGAC | -0.0298
TGAGATAA | -0.0041
ACCGGGAG | -0.168
ATGTCTCC | -0.0135
TAACACTA | 0.248
ACCAAAAC | 0.0892
GAATATCA | 0.209
CGTGAAGA | -0.181
CTGGACGC | -0.223
GGACCGGA | -0.0076
AGGACCGG | -0.227

Sequence | PBM 8-mer E-score
CAGATCCC | -0.0836
ATAAGATC | 0.15
CACAACCG | -0.028
GGCAGCCA | -0.106
CCTTCTTA | 0.0841
GCTCTAGA | -0.172
ATGGACGA | -0.11
CTACTTGA | -0.0549
ATGTGGAC | -0.162
ATAGTTCG | 0.161
CTGTGAAA | 0.0708
CAGGCTAG | -0.232
ACGCACGA | -0.161
CGTGTCAG | -0.0796
AAATTCCT | 0.0408
GAAACTAC | 0.161
CCTCCAGC | -0.389
ATATACAT | 0.365
ATTGTTTA | 0.241
GAACACTA | 0.0437
AGGTATTG | 0.201
ACGACCTC | -0.143
CATTGTAG | -0.0244
CTTGTTCC | -0.074
TAACAGTA | 0.244

Sequence | PBM 8-mer E-score
CGCTACGA | -0.149
CGTGCCCC | -0.248
CACAGGAG | -0.171
CTCGAACC | -0.209
CTGTGTGC | 0.0347
GCGAGCTA | -0.0301
AGAGTAAA | 0.099
ACAGTCAA | 0.0297
ACGTTACT | 0.0844
CATTGTCG | -0.014
TCAAAGCA | 0.0511
AACACAAA | 0.216
ATGCGTCC | -0.205
ATAGTAAC | 0.271
GGACGCAA | -0.0801
TATACTAA | 0.391
ATATTCGG | 0.143
ATTTACGC | 0.112
GGCGGCCA | -0.215
GGCGCCAA | -0.0885
CGTCAGTC | -0.295
AAGTTTCA | 0.303
CGCACACA | 0.0262
GCTTGCTA | -0.156
AGTTGAGA | 0.101

Sequence | PBM 8-mer E-score
CTGATAAA | 0.169
ACTATATA | 0.452
CCCGACCC | -0.243
ACCGAGTC | -0.253
ACCGACAG | -0.0669
CATGCTAC | -0.164
AGGCCCAG | -0.138
GATAGCCA | -0.176
AGACGATC | -0.0554
ACTGGGAC | -0.0624
CCGGAGTA | -0.105
CATACCAA | 0.0226
CTGCGTTC | -0.124
GCACAGAA | -0.102
GCACAGCA | -0.115
AACAACGT | 0.124
GGACCGTA | -0.168
ATCGTCTG | -0.138
CCCGCGGG | -0.33
ACGTGCCA | -0.00107
ACGGGGAA | -0.0252
AAACCAGA | 0.114
ACAGATGA | -0.0583
AACACCCT | -0.033
GCGTGGCC | -0.246

Sequence | PBM 8-mer E-score
ATTGGTAA | 0.196
AGCGATGC | -0.239
CTCGAGCA | -0.0957
CGGCCTTA | -0.0675
ACAAGTGC | -0.112
AGAATCAT | 0.148
CTTCATCC | -0.134
AAAGTGGT | 0.0366
ACACATAC | 0.171
ATCAAGCC | -0.141
TCATAAAA | 0.23
CCGCGGGC | -0.167
CTAAATGA | 0.126
AAGCCCTC | -0.349
ACTTGAAG | 0.0371
ATTCATCG | 0.0726
CGTGCCGC | -0.064
ACACTGAG | -0.133
ATCTCTGA | -0.138
CCTAACCG | -0.115
CAAAACGG | -0.0343
GCTCTTCC | -0.164
AAACCGAC | 0.0819
AATCCGAT | 0.046
CAGAAACA | 0.238

Sequence | PBM 8-mer E-score
GCAAACTA | 0.192
AGCGGTTC | -0.145
ACACCTAA | 0.0706
ACGGAATG | -0.0102
GGACTGAA | -0.085
CCAGTGTC | -0.126
GGTGATAA | 0.101
AGGTAAAT | 0.161
CGGGGCTC | -0.358
CTAAACAA | 0.111
ATCCCCCG | -0.154
ACCAACCT | -0.0228
CGAGGGGA | -0.279
CGTTAATC | 0.127
GCTATTAC | 0.121
ACAGTCTA | -0.0014
CCACTTGA | 0.0323
TAGCACTA | 0.048
GGGAATAC | 0.0837
GGATGCCA | -0.193
GGTCAGTA | -0.116
CCGAGACC | -0.296
GTACTATA | 0.329
TTAATCAA | 0.271
AACTTACG | 0.318

Sequence | PBM 8-mer E-score
CAGGAAAC | 0.0615
CAAAAGCA | 0.0104
GTGAAAAC | 0.109
AGCGAAGC | -0.284
AAGTTGAC | 0.117
CATCACCC | -0.207
GGAGCAAC | -0.202
ACAGCGCT | -0.187
GGGAAACC | -0.279
AAATCCGG | 0.0185
GAACCGAA | -0.0231
CATGGGAC | -0.172
CGACTTTC | 0.0202
GCACAGTA | 0.0251
GCAGGGCC | -0.237
AACGGTCA | -0.0983
TAAAGCTA | 0.0834
CGCCGCTA | 0.1
AGTGCCCA | -0.176
AGTCCTTG | -0.0717
GATGGCAA | -0.125
GGACGGAC | -0.303
AATACCGG | 0.1
CGCAAGAA | -0.0532
CCGAGACG | -0.283

Sequence | PBM 8-mer E-score
AACTGCCG | 0.0494
GCAAGAAA | 0.0406
ATCGTATC | -0.058
AGCATACG | -0.144
ATCCCACG | -0.158
CTTAGGTC | -0.118
AACTGCCA | -0.143
AGCGCATA | 0.0722
CGCTCAGA | -0.212
CCTTCGGA | -0.341
ACGTCATA | 0.0282
CCTATAGC | -0.119
ACCATCAA | -0.124
CCGTCAGC | -0.267
CTAATATC | 0.299
GCCAGATA | -0.147
CTCACTAA | -0.0215
CCGTGGAG | -0.139
CCTGCCCA | -0.219
CAGTCCGA | -0.179
CCCTCATC | -0.274
CTGTAAAG | -0.0752
CATGCGAA | 0.0317
ACGCCAAT | 0.127
CCTCGCAG | -0.152

Sequence | PBM 8-mer E-score
AATAGACG | 0.156
ATTGTGAG | 0.0655
CTACTGCA | 0.0177
ATCACTGA | 0.0221
ATCGTCAG | -0.109
GAAATATA | 0.408
CAAGAGAG | -0.194
CGCCTGTC | -0.262
CAGTCAGG | -0.208
AACCACAG | -0.111
GTCGAGGA | -0.213
ACCATGCC | -0.126
TAGATACA | 0.215
AAGGCGTC | -0.217
ACGAAATA | 0.228
GCCGTACC | -0.332
CAGGCCGG | -0.188
GTAGCTTA | 0.0787
CATCCTCC | -0.269
AGAACTTG | 0.214
AATGGCTG | -0.126
CGCGGCCA | -0.223
CCGCATTC | -0.0277
ACCACTCA | 0.157
CCTCGCCC | -0.18

Sequence | PBM 8-mer E-score
CAACCCTA | 0.00225
ATAGTCGC | 0.0285
CGTGGCTC | -0.246
ATGTGAGA | 0.0227
ATTACTCG | 0.169
ATACTGTG | 0.129
ATCATTAC | 0.235
CTTCTATC | -0.0521
CCGGCCTA | -0.174
AAGCCAGC | -0.0789
CAGCACAA | -0.0547
GTTGATTA | 0.197
CTAATCAG | -0.0597
ACGGGGCT | -0.101
GAGGTAAC | -0.101
CCGCCATC | -0.256
TATCTACA | 0.17
ACAAGAAC | 0.0614
ACATGAAG | 0.0813
